{
  "source": "the supplement of paper PMC8728848",
  "binders": {"B1": {"name": "FaeGab (Escherichia coli) (protein)", "chain": "WMTGDFNGSVDIGGSITADDYRQKWEWKVGTGLNGFGNVLNDLTNGGTKLTITVTGNKPILLGRTKEAFATPVSGGVDGIPQIAFTDYEGASVKLRNTDGETNKGLAYFVLPMKNAEGTKVGSVKVNASYAGVFGKGGVTSADGELFSLFADGLRAIFYGGLTTTVSGAALTSGSAAAARTELFGSLSRNDILGQIQRVNANITSLVDVAGSYREDMEYTDGTVVSAAYALGIANGQTIEATFNQAVTTSTQWSAPLNVAITYY"}},
  "experiment_in_all_cases": "glycan array binding signal (z-score within array); higher = stronger binding",
  "settings_in_all_cases": "glycan notation: IUPAC condensed, linker removed",
  "key": {"[1]": {"target": "Fuc(a1-2)Gal", "method_in_brief": "(§1)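 The Consortium for Functional Glycomics database supplied 3228 glycan arrays, of which those lacking an available protein sequence were dropped. The binding signal, a within-array Z-score, was averaged across arrays of the same protein sequence and across linkers. Negative scores can be read as non-binding.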"}, "[2]": {"target": "Fuc(a1-2)Gal(b1-3)GalNAc", "method_in_brief": "as §1"}, "[3]": {"target": "Fuc(a1-2)Gal(b1-3)GalNAc(b1-3)Gal", "method_in_brief": "as §1"}, "[4]": {"target": "Fuc(a1-2)Gal(b1-3)GalNAc(b1-3)Gal(a1-4)Gal(b1-4)Glc", "method_in_brief": "as §1"}, "[5]": {"target": "Fuc(a1-2)Gal(b1-3)GalNAc(b1-4)[Neu5Ac(a2-3)]Gal(b1-4)Glc", "method_in_brief": "as §1"}, "[6]": {"target": "Fuc(a1-2)Gal(b1-3)GlcNAc", "method_in_brief": "as §1"}, "[7]": {"target": "Fuc(a1-2)Gal(b1-3)GlcNAc(b1-3)Gal(b1-4)Glc", "method_in_brief": "as §1"}, "[8]": {"target": "Fuc(a1-2)Gal(b1-3)[Fuc(a1-4)]GlcNAc", "method_in_brief": "as §1"}, "[9]": {"target": "Fuc(a1-2)Gal(b1-4)Glc", "method_in_brief": "as §1"}, "[10]": {"target": "Fuc(a1-2)Gal(b1-4)GlcNAc", "method_in_brief": "as §1"}, "[11]": {"target": "Fuc(a1-2)Gal(b1-4)GlcNAc(b1-3)Gal(b1-4)GlcNAc", "method_in_brief": "as §1"}, "[12]": {"target": "Fuc(a1-2)Gal(b1-4)GlcNAc(b1-3)Gal(b1-4)GlcNAc(b1-3)Gal(b1-4)GlcNAc", "method_in_brief": "as §1"}, "[13]": {"target": "Fuc(a1-2)Gal(b1-4)[Fuc(a1-3)]GlcNAc", "method_in_brief": "as §1"}, "[14]": {"target": "Fuc(a1-2)Gal(b1-4)[Fuc(a1-3)]GlcNAc(b1-3)Gal(b1-4)[Fuc(a1-3)]GlcNAc", "method_in_brief": "as §1"}, "[15]": {"target": "Fuc(a1-2)Gal(b1-4)[Fuc(a1-3)]GlcNAc(b1-3)Gal(b1-4)[Fuc(a1-3)]GlcNAc(b1-3)Gal(b1-4)[Fuc(a1-3)]GlcNAc", "method_in_brief": "as §1"}, "[16]": {"target": "Fuc(a1-2)GlcNAc", "method_in_brief": "as §1"}, "[17]": {"target": "Fuc(a1-2)[Gal(a1-3)]Gal", "method_in_brief": "as §1"}, "[18]": {"target": "Fuc(a1-2)[Gal(a1-3)]Gal(b1-3)GlcNAc", "method_in_brief": "as §1"}, "[19]": {"target": "Fuc(a1-2)[Gal(a1-3)]Gal(b1-4)Glc", "method_in_brief": "as §1"}, "[20]": {"target": "Fuc(a1-2)[Gal(a1-3)]Gal(b1-4)GlcNAc", "method_in_brief": "as §1"}, "[21]": {"target": "Fuc(a1-2)[Gal(a1-3)]Gal(b1-4)[Fuc(a1-3)]GlcNAc", "method_in_brief": "as §1"}, "[22]": {"target": "Fuc(a1-2)[Gal(a1-4)]Gal(b1-4)GlcNAc", "method_in_brief": "as §1"}, "[23]": {"target": "Fuc(a1-2)[GalNAc(a1-3)]Gal", "method_in_brief": "as §1"}, "[24]": {"target": "Fuc(a1-2)[GalNAc(a1-3)]Gal(b1-3)GlcNAc", "method_in_brief": "as §1"}, "[25]": {"target": "Fuc(a1-2)[GalNAc(a1-3)]Gal(b1-4)Glc", "method_in_brief": "as §1"}, "[26]": {"target": "Fuc(a1-2)[GalNAc(a1-3)]Gal(b1-4)GlcNAc", "method_in_brief": "as §1"}, "[27]": {"target": "Fuc(a1-2)[GalNAc(a1-3)]Gal(b1-4)[Fuc(a1-3)]GlcNAc", "method_in_brief": "as §1"}, "[28]": {"target": "Fuc(a1-2)[GalNAc(a1-4)]Gal(b1-4)GlcNAc", "method_in_brief": "as §1"}, "[29]": {"target": "Fuc(a1-2)[GalNAc(b1-3)]Gal", "method_in_brief": "as §1"}, "[30]": {"target": "Fuc(a1-3)GlcNAc", "method_in_brief": "as §1"}},
  "note": "Some of the results follow.",
  "data": [
    {"binder": "B1", "values": [
      {"measurement": "glycan array binding signal (z-score)", "setting": "[1]", "value": 0.028},
      {"measurement": "glycan array binding signal (z-score)", "setting": "[2]", "value": -0.293},
      {"measurement": "glycan array binding signal (z-score)", "setting": "[3]", "value": -0.428},
      {"measurement": "glycan array binding signal (z-score)", "setting": "[4]", "value": -0.423},
      {"measurement": "glycan array binding signal (z-score)", "setting": "[5]", "value": -0.204},
      {"measurement": "glycan array binding signal (z-score)", "setting": "[6]", "value": -0.346},
      {"measurement": "glycan array binding signal (z-score)", "setting": "[7]", "value": -0.226},
      {"measurement": "glycan array binding signal (z-score)", "setting": "[8]", "value": -0.354},
      {"measurement": "glycan array binding signal (z-score)", "setting": "[9]", "value": -0.16},
      {"measurement": "glycan array binding signal (z-score)", "setting": "[10]", "value": -0.37},
      {"measurement": "glycan array binding signal (z-score)", "setting": "[11]", "value": -0.428},
      {"measurement": "glycan array binding signal (z-score)", "setting": "[12]", "value": -0.383},
      {"measurement": "glycan array binding signal (z-score)", "setting": "[13]", "value": -0.357},
      {"measurement": "glycan array binding signal (z-score)", "setting": "[14]", "value": -0.397},
      {"measurement": "glycan array binding signal (z-score)", "setting": "[15]", "value": -0.302},
      {"measurement": "glycan array binding signal (z-score)", "setting": "[16]", "value": -0.261},
      {"measurement": "glycan array binding signal (z-score)", "setting": "[17]", "value": -0.469},
      {"measurement": "glycan array binding signal (z-score)", "setting": "[18]", "value": -0.449},
      {"measurement": "glycan array binding signal (z-score)", "setting": "[19]", "value": -0.39},
      {"measurement": "glycan array binding signal (z-score)", "setting": "[20]", "value": -0.456},
      {"measurement": "glycan array binding signal (z-score)", "setting": "[21]", "value": -0.494},
      {"measurement": "glycan array binding signal (z-score)", "setting": "[22]", "value": -0.378},
      {"measurement": "glycan array binding signal (z-score)", "setting": "[23]", "value": -0.356},
      {"measurement": "glycan array binding signal (z-score)", "setting": "[24]", "value": -0.511},
      {"measurement": "glycan array binding signal (z-score)", "setting": "[25]", "value": -0.492},
      {"measurement": "glycan array binding signal (z-score)", "setting": "[26]", "value": -0.506},
      {"measurement": "glycan array binding signal (z-score)", "setting": "[27]", "value": -0.305},
      {"measurement": "glycan array binding signal (z-score)", "setting": "[28]", "value": -0.283},
      {"measurement": "glycan array binding signal (z-score)", "setting": "[29]", "value": 0.031},
      {"measurement": "glycan array binding signal (z-score)", "setting": "[30]", "value": 0.049}
    ]}
  ]
}
